This note sets out measurements from PubChem BioAssay (NCI).

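Tested at 5 concentrations; 48 h exposure; 96-well plates; endpoints linearly interpolated, else capped at highest concentration. Abbreviation: GI50, concentration required for 50% inhibition of growth. TGI: total growth inhibition.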 Where only a bound is given, the exact number is not on record here.

In this experiment the test system is NCI-H322M lung. Description: inhibition of tumour cell growth, NCI panel, 48 h.
The molecule `COc1cc(C)c(-c2ccc(OC)c(=O)cc2C)c(OC)c1OC` returned a TGI of more than 100 µM.
In the case of `C#C[C@]1(O)CC[C@H]2[C@@H]3CC=C4c5sc(-c6ccc(C)cc6)nc5CC[C@]4(C)[C@H]3CC[C@@]21C`, the GI50 is more than 100 µM and the TGI was more than 100 µM.
Regarding `CS(=O)(=O)c1nccc(-c2c(-c3ccc(F)c(OCCc4ccccc4)c3)nc3sccn23)n1`, the GI50 is 15.2 µM and the TGI was found to be 30.2 µM.
For `ClC(Cl)c1nc(-c2ccco2)n2nc(-c3ccccc3)cc2n1`, the GI50 was 1.37 µM and the TGI came to 4.9 µM.
